# The campaign covered roughly 200,000 compounds. About 4,500 (2.2%) were called active. Inconclusive results, whose numbers are uncertain, are shown with a selection of clear calls. The call rests on the fitted dose curve; in most records, active means well fitted inhibition curve with a large enough effect; inconclusive means small, poorly fitted or top-dose-only effect, or effect the other way; inactive means flat fitted curve, though single readings scatter. Potencies of inconclusive entries are doubtful fits and often do not repeat.
# Biological target: Cruzipain (Trypanosoma cruzi) (UniProt P25779)
# Test: qHTS Assay for Promiscuous and Specific Inhibitors of Cruzain (without detergent); further: nearly all actives have a fitted effect of over 40% in size;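 on max response, negative = inhibition: plate controls were enzyme without inhibitor for no effect and buffer without enzyme for full effect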
# Conditions: purified cruzain, Z-FR-AMC fluorescence, no detergent
# Procedure, shortened: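 Purified cruzain at 1.5 nM, pre-incubated 15 min with compound at room temperature in 100 mM sodium acetate pH 5.5, 5 mM DTT, 0.00005% Triton X-100. Reaction started with 2 uM Z-FR-AMC; AMC fluorescence increase over 60 s gives rate.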
# Potency means the concentration at half of the fitted maximal effect; tags describe the fitted curve by direction and shape.
# UniProt P25779, sequence (P25779 whole entry, looked up): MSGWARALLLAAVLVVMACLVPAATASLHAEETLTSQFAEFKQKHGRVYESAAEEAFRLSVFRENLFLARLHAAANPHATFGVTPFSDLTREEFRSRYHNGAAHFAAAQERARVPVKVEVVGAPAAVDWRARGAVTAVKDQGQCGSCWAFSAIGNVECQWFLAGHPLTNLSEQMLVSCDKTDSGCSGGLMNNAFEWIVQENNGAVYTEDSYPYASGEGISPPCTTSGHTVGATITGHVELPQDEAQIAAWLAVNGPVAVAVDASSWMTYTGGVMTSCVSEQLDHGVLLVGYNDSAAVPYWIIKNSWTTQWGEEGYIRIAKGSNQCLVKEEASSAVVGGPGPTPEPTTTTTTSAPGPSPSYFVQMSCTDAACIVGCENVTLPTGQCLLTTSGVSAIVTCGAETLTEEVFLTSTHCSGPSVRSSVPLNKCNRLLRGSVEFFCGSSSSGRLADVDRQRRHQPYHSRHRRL
SMILES,"max response, negative = inhibition",Potency
COC(=O)c1ccc(NC(=O)C(C)Sc2nc(=O)cc(N)n2CCc2ccccc2)cc1 (stereo not given),inactive: 10.8%,–
COc1ccc(CN=C(Nc2ccccc2)SC2CC(=O)N(C)C2=O)cc1 (stereo not given),–,"inconclusive: 31.6 µM [activator, single point]"
CN(C1CCCCC1)S(=O)(=O)c1ccc2c(c1)c(=O)c(C(=O)N1CCN(c3ccccc3)CC1)cn2C,inactive: 6.16%,–
O=C(O)c1ccc(NC(=O)c2ccc(Cl)c(S(=O)(=O)N3CCCCCC3)c2)cc1,–,"inconclusive: 25.1 µM [inhibitor, single point]"
CCCCOc1ccc(CNC(=O)NS(=O)(=O)c2ccc(OCC)cc2)cc1,–,active: 20 µM
COc1ccccc1-c1cc2nc(C)c(CCC(=O)NCc3ccco3)c(C)n2n1,–,"inconclusive: 39.8 µM [activator, single point]"
COc1cccc2cc(C(=O)N3CCN(c4ccc(C)cc4C)CC3)c(=O)oc12,–,"inconclusive: 31.6 µM [activator, single point]"
CCN(CCO)c1ncnc2c1sc1nc(C(C)C)c3c(c12)CC(C)(C)OC3,–,"inconclusive: 15.8 µM [activator, partial curve]"
COCCNC(=O)CSc1nc2ccc(N3CCOCC3)cc2c(=O)n1Cc1ccc(OC)cc1,–,"inconclusive: 39.8 µM [activator, single point]"
O=C(Cn1cnc2cc([N+](=O)[O-])ccc2c1=O)NC(c1ccccc1)c1ccccc1,–,"inconclusive: 25.1 µM [inhibitor, single point]"
COc1cccc(CNC(=O)Cn2c(=O)ccc3cc(S(=O)(=O)N4CCCC4)ccc32)c1,inactive: 1.51%,–
Cc1c(Cc2ccccc2)c(=O)oc2c(CN(C)C)c(O)c(Cl)cc12,–,"inconclusive: 3.98 µM [activator, partial curve]"
COc1ccc(-n2c(C)nc3c(cnn3-c3ccc(C)c(C)c3)c2=O)cc1Cl,inactive: -1.49%,–
CCS(=O)(=O)N1CCCc2cc(C(=O)Nc3cc([N+](=O)[O-])ccc3C)ccc21,inactive: -14.5%,–
CC1CN(C)C(c2ccccc2)C(C)C12NC(=O)NC2=O (stereo not given),inactive: -2.88%,–
CCOC(=O)/C=C1\SCC(=O)N1Cc1nnc(-c2ccccc2Br)o1,–,"inconclusive: 25.1 µM [inhibitor, single point]"
CCc1ccc2occ(CC(=O)N(Cc3ccccc3)C3CCS(=O)(=O)C3)c2c1 (stereo not given),–,"inconclusive: 39.8 µM [activator, single point]"
C[C@@H](C(=O)NCc1ccc(C(F)(F)F)nc1)[C@H]1C[C@]1(C)[C@H](NC(=O)OCc1ccccc1)c1ccccc1,–,"inconclusive: 25.1 µM [activator, single point]"
CCn1c(SCC(=O)Nc2ccc3c(c2)c2ccccc2n3CC)nnc1-c1cnccn1,–,"inconclusive: 10 µM [activator, partial curve]"
Cc1ccc(S(=O)(=O)Oc2ccc3c(c2)O/C(=C\c2cccnc2)C3=O)cc1,–,"inconclusive: 39.8 µM [activator, single point]"
Nc1ccc(C2(c3ccc(N)cc3)c3ccccc3-c3ccccc32)cc1,–,"inconclusive: 3.16 µM [inhibitor, single point]"
Cc1cccc(NC(=S)NNC(=O)COc2ccc(Cl)cc2Cl)c1,–,"inconclusive: 39.8 µM [inhibitor, single point]"

SMILES,"max response, negative = inhibition",Potency
CSc1cccc(-n2nnc(-c3nsc(NC(=O)c4cccs4)n3)c2C)c1,–,"inconclusive: 0.398 µM [activator, single point]"
CCCCNC(=O)c1c(N)n(/N=C/c2ccccn2)c2nc3ccccc3nc12,–,"inconclusive: 7.94 µM [activator, full curve]"
COC(=O)c1ccc(CSc2nc(N)cc(N)n2)cc1,–,"inconclusive: 25.1 µM [inhibitor, single point]"
Cc1ccccc1C(=O)NNC(=O)c1ccc(F)cc1,inactive: -0.545%,–
COc1cc(NC(=S)NCCC(c2ccccc2)c2ccccc2)c(OC)cc1Cl,–,"inconclusive: 39.8 µM [inhibitor, single point]"
Cc1c(Cl)cccc1NC(=O)Nc1c[nH]c(=O)[nH]c1=O,–,active: 20 µM
COc1cc(/C=C(/C#N)c2nc(-c3cc4ccccc4oc3=O)cs2)ccc1O,inactive: 12.4%,–
CS(=O)(=O)N1CCC2(CC1)CN(C(c1ccccc1)c1ccccc1)C2,inactive: -10.3%,–
COc1ccc(C(=O)NN=C(Cc2ccccc2)Cc2ccccc2)cc1OC,–,"inconclusive: 39.8 µM [activator, single point]"
CCOC(=O)c1cc(-c2ccccc2)n(CC(=O)Nc2cccc(OC)c2)c1C,inactive: 14.6%,–
O=Cc1cn(Cc2ccc([N+](=O)[O-])cc2)c2ccccc12,–,"inconclusive: 39.8 µM [inhibitor, single point]"
CCn1c(Cn2nnc(-c3ccccc3)n2)nnc1SCC(=O)Nc1cccc(C)c1C,–,"inconclusive: 39.8 µM [activator, single point]"
O=C(CSc1nccn1Cc1ccc2c(c1)OCO2)Nc1ccccc1F,inactive: -7.18%,–
CC(C)(C)C1CCc2onc(C(=O)Nc3ccc(F)cc3F)c2C1 (stereo not given),inactive: -2.18%,–
COC(=O)C1C(c2ccc(OC)c(OC)c2)NC(c2ccc(OC)c(OC)c2)C(C(=O)OC)S1(=O)=O (stereo not given),–,"inconclusive: 31.6 µM [activator, partial curve]"
CC(C)CN(CC#N)CC(C)C,inactive: 2.59%,–
CC/C(=N/Nc1ccccc1)c1cnnc(-c2ccccc2)n1,–,"inconclusive: 15.8 µM [inhibitor, single point]"
Cc1cc2oc(C(=O)N(Cc3ccc(Cl)cc3)Cc3ccco3)c(C)c2cc1Cl,–,"inconclusive: 39.8 µM [inhibitor, single point]"
COc1ccccc1CSc1ncc(-c2ccc([N+](=O)[O-])cc2)[nH]1,–,"inconclusive: 39.8 µM [inhibitor, single point]"
Cc1cc(C)c(NC(=O)c2cc(C)nc3c2c(C)nn3-c2cccc(F)c2)c(C)c1,inactive: 4.81%,–
CC1CCc2c(sc(NC(=O)CN3CCN(C(=O)c4ccco4)CC3)c2C#N)C1 (stereo not given),–,"inconclusive: 31.6 µM [activator, single point]"
Cc1cccc(C)c1NC(=O)CSc1nnc(Cn2nnc(-c3ccccc3)n2)n1-c1ccccc1,–,"inconclusive: 25.1 µM [activator, single point]"

SMILES,"max response, negative = inhibition",Potency
COCCN1Cc2cccc(C(=O)Nc3cc(C)cc(C)c3)c2C1=O,–,"inconclusive: 31.6 µM [activator, single point]"
Cc1cnc(CNc2nc(-c3c(C)noc3C)nc3ccccc23)cn1,inactive: 11.9%,–
COc1cccc(NC(=O)c2oc3ccc(S(=O)(=O)N(C)C4CCCCC4)cc3c2C)c1,–,"inconclusive: 39.8 µM [inhibitor, single point]"
Brc1ccc(-c2csc(N/N=C/c3ccc4c(c3)OCO4)n2)cc1,–,active: 10 µM
CCCCC/C=C/C=C1/C(=O)C=C[C@@H]1C/C=C\CCCC(=O)O,–,"inconclusive: 35.5 µM [activator, single point]"
CC(C)n1c(/C=C\[C@@H](O)C[C@@H](O)CC(=O)O)c(-c2ccc(F)cc2)c2ccccc21,–,"inconclusive: 15.8 µM [activator, partial curve]"
COc1cccc(CNC(=O)c2cccc(N3CCCS3(=O)=O)c2)c1,inactive: -1.25%,–
COc1cccc2sc(Nc3nnc(-c4ccc(F)cc4)o3)nc12,–,"inconclusive: 25.1 µM [activator, partial curve]"
CS(=O)(=O)CCC(C(=O)OCc1ccc(Br)cc1)N1C(=O)c2ccccc2C1=O (stereo not given),–,"inconclusive: 39.8 µM [activator, single point]"
Cc1ccc(C(=O)NCC(c2ccc(Cl)cc2)N2CCCCC2)cc1 (stereo not given),inactive: -6.87%,–
CCOC(=O)N1CCN(C(=O)c2oc3ccc(S(=O)(=O)N4CCOCC4)cc3c2C)CC1,–,"inconclusive: 39.8 µM [activator, single point]"
O=C(NCc1c(-n2cccc2)sc2c1CCCC2)Nc1cccc(C(F)(F)F)c1,inactive: 3.63%,–
CCC(C)n1c(SCC(=O)Nc2ccccc2C(=O)OC)nc2ccsc2c1=O (stereo not given),–,"inconclusive: 39.8 µM [activator, single point]"
Nc1nc(-c2ccc(Cl)c(Cl)c2)c(-c2ccncc2)s1,–,"inconclusive: 39.8 µM [inhibitor, single point]"
COc1cccc(C(CC(=O)Nc2cccc3ccccc23)NC(=O)c2ccccc2)c1 (stereo not given),–,"inconclusive: 31.6 µM [inhibitor, single point]"
COc1cccc(-c2cc(C(=O)Nc3cc(Cl)ccc3O)on2)c1,inactive: -29.4%,–
COC(=O)c1c(C)oc2ccc(N(C(=O)c3ccncc3)S(=O)(=O)c3ccccc3)cc12,–,"inconclusive: 39.8 µM [activator, single point]"
CCOC(=O)N1CCC(NC(=O)C(C)n2c3ccccc3c3cnn(C)c(=O)c32)CC1 (stereo not given),–,"inconclusive: 31.6 µM [activator, single point]"
Cc1ccc(-c2cc(-c3ccccc3)c(C#N)c(Br)n2)cc1,–,"inconclusive: 39.8 µM [inhibitor, single point]"
NCCNc1ccc([N+](=O)[O-])c(Sc2nc3ccccc3[nH]2)c1,–,"inconclusive: 39.8 µM [inhibitor, single point]"
N#Cc1c(NC(=O)CCN2C(=O)c3ccccc3C2=O)oc(-c2ccccc2)c1-c1ccccc1,–,"inconclusive: 31.6 µM [inhibitor, single point]"
